Counter-ions that a name gives are not always drawn. ± gives the standard deviation of the averaged measurements. Over roughly 1,300 compounds, “normalised cell viability” has its median near 1; the lowest 2% begin near 0.15. Some of the results follow.

In this assay the test system is V-C8 + BRCA2 (BRCA2-proficient hamster cells). Put plainly: normalised cell viability (fraction of plate median); higher = more viable cells (less toxic). The note with it: 5 µM. Summed up: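 Hamster V-C8 cells with and without restored BRCA2 were exposed in 96-well plates to library drugs at 5 μM for 3 days (screen 1) or 6 days (screen 2). Cell viability was scored by resazurin assay, then median-plate normalised, averaging triplicate wells.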

For `Cc1c(O)cccc1C(=O)N[C@@H](CSc1ccccc1)[C@H](O)CN1C[C@H]2CCCC[C@H]2C[C@H]1C(=O)NC(C)(C)C` [Nelfinavir mesylate], the normalised cell viability (treatment time: 3 days) was 0.845 ± 0.052 and the normalised cell viability (treatment time: 6 days) worked out at 0.909 ± 0.074.

Consider `CN(C)CCC(c1ccccc1)c1ccccn1` (stereo not drawn) [Pheniramine maleate], for which the normalised cell viability runs as follows: (treatment time: 3 days) 1.02 ± 0.05; (treatment time: 6 days) 0.987 ± 0.031.

With `C=CCc1ccccc1OCC(O)CNC(C)C` (stereo not drawn) [Alprenolol hydrochloride], the normalised cell viability runs as follows: (treatment time: 3 days) 1 ± 0.063; (treatment time: 6 days) 0.926 ± 0.056.

In the case of `NC[C@H]1CC[C@H](C(=O)O)CC1` [Tranexamic acid], the normalised cell viability came out at 1.047 ± 0.0045 (treatment time: 3 days) and 0.993 ± 0.025 (treatment time: 6 days).

Turning to `CCCCOc1ccc(CC(=O)NO)cc1` [Bufexamac], the normalised cell viability is, setting by setting: (treatment time: 3 days) 0.921 ± 0.016; (treatment time: 6 days) 0.864 ± 0.04.

Consider `CC(=O)OC(C)C[N+](C)(C)C` (stereo not drawn) [Methacholine chloride], for which the normalised cell viability amounted to 1.11 ± 0.036 (treatment time: 3 days) and 0.9867 ± 0.0014 (treatment time: 6 days).

For the compound `Cc1ccc(O)c([C@H](CCN(C(C)C)C(C)C)c2ccccc2)c1` [Tolterodine tartrate], the normalised cell viability came out at 1.05 ± 0.062 (treatment time: 3 days) and 0.965 ± 0.053 (treatment time: 6 days).

For `O=C(O)c1cc(=O)c2c(OCC(O)COc3cccc4oc(C(=O)O)cc(=O)c34)cccc2o1` [Cromolyn disodium salt], the normalised cell viability (treatment time: 3 days) was found to be 1.01 ± 0.02 and the normalised cell viability (treatment time: 6 days) is 1.03 ± 0.034.

Consider `Clc1ccc(COC(Cn2ccnc2)c2ccc(Cl)cc2Cl)cc1` (stereo not drawn) [Econazole nitrate], for which the normalised cell viability (treatment time: 3 days) worked out at 1 ± 0.025 and the normalised cell viability (treatment time: 6 days) came to 1.04 ± 0.049.

With `Clc1ccccc1C(c1ccccc1)(c1ccccc1)n1ccnc1` [Clotrimazole], the normalised cell viability is, setting by setting: (treatment time: 3 days) 0.646 ± 0.029; (treatment time: 6 days) 0.75 ± 0.069.

As for `C=CC[N@@+]12CC[C@@]34c5ccccc5N5/C=C6/[C@H]7C[C@H]8[C@@]9(CC[N@@+]8(CC=C)C/C7=C/CO)c7ccccc7N(/C=C(/[C@@H](C[C@@H]31)/C(=C\CO)C2)[C@H]54)[C@@H]69` [Alcuronium chloride], the normalised cell viability was 1.03 ± 0.023 (treatment time: 3 days) and 1 ± 0.09 (treatment time: 6 days).

For `CCCC(C(=O)OCCN(CC)CC)(c1ccccc1)c1ccccc1` [Proadifen hydrochloride], the normalised cell viability was found to be 0.919 ± 0.024 (treatment time: 3 days) and 0.908 ± 0.052 (treatment time: 6 days).

In the case of `O=P(O)(O)C(O)(Cc1cccnc1)P(=O)(O)O` [Risedronic acid monohydrate], the normalised cell viability amounted to 1.06 ± 0.022 (treatment time: 3 days) and 1.01 ± 0.059 (treatment time: 6 days).

With `CCN(CC)C(=O)N1CCN(C)CC1` [Diethylcarbamazine citrate], the normalised cell viability is 1.08 ± 0.045 (treatment time: 3 days) and 1.08 ± 0.048 (treatment time: 6 days).

Regarding `CCN(CCCc1ccccc1)CCCc1ccccc1` [Alverine citrate salt], the normalised cell viability (treatment time: 3 days) is 0.97 ± 0.072 and the normalised cell viability (treatment time: 6 days) stood at 0.968 ± 0.024.

On to `CC(C)C(=O)c1c(C(C)C)nn2ccccc12` [Ibudilast], for which the normalised cell viability is 0.987 ± 0.062 (treatment time: 3 days) and 0.981 ± 0.061 (treatment time: 6 days).

For `CC(C)NCC(O)COc1cccc2[nH]ccc12` (stereo not drawn) [Pindolol], the normalised cell viability was found to be 0.918 ± 0.051 (treatment time: 3 days) and 1.02 ± 0.029 (treatment time: 6 days).

With `OC(CCN1CCCC1)(c1ccccc1)C1CCCCC1` (stereo not drawn) [Procyclidine hydrochloride], the normalised cell viability reads like this: (treatment time: 3 days) 0.981 ± 0.047; (treatment time: 6 days) 0.987 ± 0.012.

As for `CC(CN(C)C)CN1c2ccccc2CCc2ccccc21` (stereo not drawn) [Trimipramine maleate salt], the normalised cell viability amounted to 1.05 ± 0.052 (treatment time: 3 days) and 0.979 ± 0.046 (treatment time: 6 days).

Turning to `CCCCOc1ccc(C(=O)CCN2CCCCC2)cc1` [Dyclonine hydrochloride], the normalised cell viability by setting is: (treatment time: 3 days) 0.962 ± 0.018; (treatment time: 6 days) 1.06 ± 0.1.

With `C=C1C(=O)O[C@H]2[C@H]1CC/C(C)=C/CC[C@@]1(C)O[C@@H]21` [Parthenolide], the normalised cell viability is, setting by setting: (treatment time: 3 days) 0.171 ± 0.0068; (treatment time: 6 days) 0.292 ± 0.096.

Turning to `Cn1nnc2c(C(N)=O)ncn2c1=O` [Temozolomide], the normalised cell viability reads like this: (treatment time: 3 days) 1.06 ± 0.022; (treatment time: 6 days) 0.926 ± 0.086.

In the case of `CC(C)(C)NC(=O)[C@H]1CC[C@H]2[C@@H]3CC[C@H]4NC(=O)C=C[C@]4(C)[C@H]3CC[C@]12C` [Finasteride], the normalised cell viability (treatment time: 3 days) was 0.918 ± 0.052 and the normalised cell viability (treatment time: 6 days) was determined as 0.983 ± 0.06.

With `Nc1nc(N)c2nc(-c3ccccc3)c(N)nc2n1` [Triamterene], the normalised cell viability is 0.938 ± 0.015 (treatment time: 3 days) and 0.794 ± 0.02 (treatment time: 6 days).

`CC[C@H](c1ccc(O)cc1)[C@@H](CC)c1ccc(O)cc1` [Hexestrol]: the normalised cell viability reads like this: (treatment time: 3 days) 0.9735 ± 0.0097; (treatment time: 6 days) 0.944 ± 0.19.

On to `Cc1c(Nc2ncccc2C(=O)O)cccc1C(F)(F)F` [Flunixin meglumine], for which the normalised cell viability is, setting by setting: (treatment time: 3 days) 1.03 ± 0.033; (treatment time: 6 days) 1.01 ± 0.067.

With `CN(Cc1cc(Br)cc(Br)c1N)C1CCCCC1` [Bromhexine hydrochloride], the normalised cell viability is 0.949 ± 0.042 (treatment time: 3 days) and 1.02 ± 0.072 (treatment time: 6 days).

For `C[C@H](CS)C(=O)N1CCC[C@H]1C(=O)O` [Captopril], the normalised cell viability is 0.973 ± 0.025 (treatment time: 3 days) and 1.01 ± 0.048 (treatment time: 6 days).

In the case of `CC1(C)O[C@@H]2C[C@H]3[C@@H]4C[C@H](F)C5=CC(=O)C=C[C@]5(C)[C@H]4[C@@H](O)C[C@]3(C)[C@]2(C(=O)CO)O1` [Flunisolide], the normalised cell viability is 1.03 ± 0.067 (treatment time: 3 days) and 1.07 ± 0.073 (treatment time: 6 days).

Regarding `NCCc1ccc(O)c(O)c1` [Dopamine hydrochloride], the normalised cell viability worked out at 1.01 ± 0.027 (treatment time: 3 days) and 1 ± 0.041 (treatment time: 6 days).

`CCN1CCCC1CNC(=O)c1cc(S(N)(=O)=O)ccc1OC` (stereo not drawn) [Sulpiride]: the normalised cell viability is, setting by setting: (treatment time: 3 days) 1.13 ± 0.028; (treatment time: 6 days) 1.02 ± 0.02.

For the compound `COc1ccc(-c2ccc3cc(C(=O)O)ccc3c2)cc1C12CC3CC(CC(C3)C1)C2` [Adapalene], the normalised cell viability (treatment time: 3 days) was determined as 0.313 ± 0.0073 and the normalised cell viability (treatment time: 6 days) came to 0.441 ± 0.011.

In the case of `O=C(O)c1cccnc1` [Niacin], the normalised cell viability reads like this: (treatment time: 3 days) 1.07 ± 0.21; (treatment time: 6 days) 1.01 ± 0.013.

In the case of `CCCCc1oc2ccccc2c1C(=O)c1cc(I)c(OCCN(CC)CC)c(I)c1` [Amiodarone hydrochloride], the normalised cell viability (treatment time: 3 days) is 0.729 ± 0.057 and the normalised cell viability (treatment time: 6 days) came to 0.753 ± 0.047.

The values above are taken from the supplement of paper PMC6609913.
